Reference: the supplement of paper PMC3334620
Over roughly 33,000 sequences, “E-score (-0.5 to 0.5)” has its median near -0.041; the highest 2% begin near 0.37. This is one part of the list.

target: T1, Ecm22 (UniProt Q05958); assay: PBM E-score (8-mer binding enrichment) (E-score (-0.5 to 0.5)); higher = stronger / more preferred TF binding; most listed sequences are background and not binding sites; settings: protein concentration: 200 nM; construct: GST-full length
T1 sequence: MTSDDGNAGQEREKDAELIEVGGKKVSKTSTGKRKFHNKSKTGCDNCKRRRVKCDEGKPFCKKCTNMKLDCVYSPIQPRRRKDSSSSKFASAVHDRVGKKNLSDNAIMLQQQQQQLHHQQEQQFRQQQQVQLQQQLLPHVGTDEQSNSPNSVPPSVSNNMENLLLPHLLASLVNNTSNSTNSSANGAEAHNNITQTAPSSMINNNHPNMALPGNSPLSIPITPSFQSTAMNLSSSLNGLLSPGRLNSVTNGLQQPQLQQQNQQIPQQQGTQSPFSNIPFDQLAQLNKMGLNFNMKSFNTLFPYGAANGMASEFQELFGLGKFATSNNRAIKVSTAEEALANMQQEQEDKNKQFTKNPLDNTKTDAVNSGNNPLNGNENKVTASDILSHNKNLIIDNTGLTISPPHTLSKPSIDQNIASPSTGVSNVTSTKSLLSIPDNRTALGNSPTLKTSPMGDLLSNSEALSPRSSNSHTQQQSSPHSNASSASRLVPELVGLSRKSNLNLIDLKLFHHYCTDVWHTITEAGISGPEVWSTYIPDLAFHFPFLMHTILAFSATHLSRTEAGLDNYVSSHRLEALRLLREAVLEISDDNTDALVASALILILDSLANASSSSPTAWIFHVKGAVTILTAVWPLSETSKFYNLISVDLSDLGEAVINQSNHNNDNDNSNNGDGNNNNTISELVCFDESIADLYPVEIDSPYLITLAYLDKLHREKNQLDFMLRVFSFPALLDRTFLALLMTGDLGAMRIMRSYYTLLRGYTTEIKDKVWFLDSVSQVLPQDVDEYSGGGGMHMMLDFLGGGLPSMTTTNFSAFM
Summary of the method: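 Masliner-normalised scans of fluorescent anti-GST signal were the basis for scoring. That signal came from GST-tagged yeast transcription factors applied at about 100-200 nM to double-stranded universal all-10-mer Agilent arrays on fresh or once-stripped slides. Each ungapped eight-base word, pooled with its reverse complement, received an E-score from the Universal PBM Analysis Suite.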

Row | Sequence | PBM E-score
1 | CCGTCGAG | 0.00911
2 | GCGCCCCC | -0.25
3 | AAATAATT | 0.00596
4 | AAGGGTTA | -0.0464
5 | AGTAAAAA | -0.142
6 | GCTCTGTA | -0.0048
7 | AGTAGGGA | -0.121
8 | CTACGCTC | -0.114
9 | ATCTCCTC | -0.0702
10 | AATATTCC | -0.0245
11 | AATGAACC | -0.208
12 | ACCACCGT | 0.267
13 | ACGGGGGG | 0.0925
14 | AGCCTCAC | -0.175
15 | CGGCGCAC | -0.0575
16 | CCGAATGA | 0.191
17 | ATGCGCAT | 0.027
18 | AATAGTAC | 0.284
19 | CGATGAGC | 0.0666
20 | ATCGGGCG | -0.141
21 | CGTTTGAA | 0.275
22 | CGTACGAG | 0.473

Row | Sequence | PBM E-score
23 | GCGTGAAC | 0.183
24 | CTATGAAG | -0.125
25 | AAGGTGGC | -0.0479
26 | CAAATCGA | -0.05
27 | ATACGTTC | 0.318
28 | GGTGCTTA | -0.157
29 | ACTCTATC | -0.12
30 | CCGCAATA | 0.0155
31 | CAACAAAG | 0.0253
32 | ACCCGGCA | -0.0161
33 | GACGCCGC | 0.00871
34 | ACAGTACG | 0.326
35 | GATACGAA | 0.445
36 | ATCACAAA | -0.18
37 | GCCAGGGA | -0.0729
38 | CACAGCCG | 0.06
39 | CTCAGAAC | -0.0802
40 | AGTCCTTA | -0.242
41 | CCGTTAAA | 0.278
42 | AACATCGA | -0.0105
43 | ATTGCTAG | -0.191
44 | ACAGGCTC | -0.0921

Row | Sequence | PBM E-score
45 | GGAGCTCA | -0.143
46 | CGGTTCAA | 0.00076
47 | GGGGTAAC | -0.0259
48 | AGCGTGGA | -0.0519
49 | CGACAGAA | 0.19
50 | GAGTCTAA | -0.115
51 | CGGCTACG | 0.283
52 | ACAAAGGG | -0.338
53 | CATCCGAG | 0.163
54 | GGCACACA | -0.122
55 | CGTGTTAA | -0.0172
56 | GCTTTCAA | -0.0189
57 | CGTGCCAC | -0.129
58 | AGAAGTCA | -0.222
59 | AGGCGCGC | 0.0957
60 | CTCCTGCA | -0.0892
61 | ATACTGTC | 0.0723
62 | AGAGAACG | 0.288
63 | ATGTTTAA | -0.0568
64 | CATCAATA | 0.101
65 | CGAAACCA | 0.28
66 | ACCGATAT | 0.138

Row | Sequence | PBM E-score
67 | AACATTAC | -0.153
68 | CAATAGGA | -0.143
69 | CGAACCCG | 0.214
70 | ACAAACGC | 0.174
71 | ACGCCGAA | 0.132
72 | AGATGGGC | -0.226
73 | TAGTAATA | -0.00327
74 | ACTAGGGA | -0.175
75 | ACTACCAT | 0.0241
76 | AAGCTTAT | -0.0325
77 | AACAACAC | 0.0503
78 | CCATTCGG | -0.0355
79 | AAGAGACT | -0.202
80 | AGATATCT | -0.176
81 | CTCGGTAA | 0.277
82 | ACCCGTAT | 0.391
83 | GCGTCTAC | -0.0526
84 | AGATTCTA | 0.0997
85 | CACGAATA | 0.117
86 | CAAAGTAC | 0.196
